Screen size: about 310,000 compounds; about 14,000 (4.5%) showed an effect of 50% or more. Effects have a minus sign here. Some of the results follow.
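Further: peak tail current of the secondary pulse compared with the same well before compound.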

For this experiment, the target named is human ether-à-go-go-related gene (hERG) potassium channel (human, UniProt Q12809). As to the kind of experiment: primary screen, population patch clamp on CHO cells stably expressing hERG.
Chain of human ether-à-go-go-related gene (hERG) potassium channel (Q12809 whole entry, looked up): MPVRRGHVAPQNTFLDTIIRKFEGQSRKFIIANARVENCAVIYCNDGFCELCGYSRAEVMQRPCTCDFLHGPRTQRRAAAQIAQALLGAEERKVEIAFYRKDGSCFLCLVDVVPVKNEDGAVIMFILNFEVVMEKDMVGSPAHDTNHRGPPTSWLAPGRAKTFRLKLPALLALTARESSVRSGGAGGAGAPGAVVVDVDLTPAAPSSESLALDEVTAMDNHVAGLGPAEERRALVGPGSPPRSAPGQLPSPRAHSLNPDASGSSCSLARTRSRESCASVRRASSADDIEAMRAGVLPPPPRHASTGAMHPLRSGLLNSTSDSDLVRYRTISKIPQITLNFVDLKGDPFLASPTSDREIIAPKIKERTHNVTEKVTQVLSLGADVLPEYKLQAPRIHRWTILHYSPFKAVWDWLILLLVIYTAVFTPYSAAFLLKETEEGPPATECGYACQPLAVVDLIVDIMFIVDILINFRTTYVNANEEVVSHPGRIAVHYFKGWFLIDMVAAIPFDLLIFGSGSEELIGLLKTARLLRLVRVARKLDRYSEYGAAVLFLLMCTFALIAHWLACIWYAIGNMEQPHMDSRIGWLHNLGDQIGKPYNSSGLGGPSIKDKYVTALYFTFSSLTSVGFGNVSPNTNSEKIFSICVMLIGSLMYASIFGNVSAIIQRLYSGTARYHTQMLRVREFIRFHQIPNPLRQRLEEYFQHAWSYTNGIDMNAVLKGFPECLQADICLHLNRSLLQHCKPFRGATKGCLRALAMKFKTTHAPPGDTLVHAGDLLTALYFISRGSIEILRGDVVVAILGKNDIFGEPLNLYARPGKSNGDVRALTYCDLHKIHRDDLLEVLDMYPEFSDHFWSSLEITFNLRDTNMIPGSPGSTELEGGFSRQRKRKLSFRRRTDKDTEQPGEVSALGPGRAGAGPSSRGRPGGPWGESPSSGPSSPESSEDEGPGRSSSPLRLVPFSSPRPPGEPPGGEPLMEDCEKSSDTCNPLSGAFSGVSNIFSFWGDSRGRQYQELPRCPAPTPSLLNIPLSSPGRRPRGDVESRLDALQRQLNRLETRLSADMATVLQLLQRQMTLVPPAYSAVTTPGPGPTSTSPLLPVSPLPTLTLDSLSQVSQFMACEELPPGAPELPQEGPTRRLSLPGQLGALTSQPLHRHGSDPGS
As to `Cc1ccc(NC(=O)CSc2nccn(-c3ccc4c(c3)OCCO4)c2=O)cc1`, the “hERG current change (%, negative = inhibition) at 10uM” value is on record as -5.2%.
In the case of `CC(=O)Oc1ccc(-c2cccc(C(=O)O)c2)cc1`, the “hERG current change (%, negative = inhibition) at 10uM” value came out at 10.4%.
For `Nc1nc(NCC2CCCO2)nc(Nc2ccccc2)c1[N+](=O)[O-]` (stereo not drawn) the value was -12.7%.
For `CCOc1ccccc1NC(=O)CC1SC(=N)N(c2ccccc2)C1=O` (stereo not drawn) the value was 6.4%.
For `COC(=O)c1ccc(NC(=O)COc2cccc3c2OC(C)(C)C3)cc1` the value was -0.606%; for `CC(C)(C)NC(=O)COc1ccc(CNCc2cccnc2)cc1.Cl`, -3.67%; for `CS(=O)(=O)N1CCN(C(=O)c2ccc(Cl)s2)CC1`, 7.69%.
For the compound `CCS(=O)(=O)Nc1ccc2c(c1)OCO2`, the “hERG current change (%, negative = inhibition) at 10uM” value is 10.7%.
For `CN(CC1CCOCC1)C(=O)CC1C(=O)NCCN1CC1CCCCC1` (stereo not drawn) the value was 18.6%; for `CCC(=O)n1nc(-c2ccccc2)nc1SCC(=O)Nc1ccc(C)cc1`, -2.1%.
With `C=CCOc1ccc(C(=O)CC)cc1OC`, the “hERG current change (%, negative = inhibition) at 10uM” value is given as -0.696%.
For `CN(C)Cc1cc2ccccc2c2c1COC2` the value was -0.493%.
For `Cc1ccccc1NCc1nc2ccccc2n1C` the value was 16.3%; for `CN(Cc1nc(-c2ccccc2)no1)C(=O)c1ccc2c(c1)OCO2`, -20.5%.
In the case of `S=C(NCC1CCCO1)N1CCN(Cc2ccccc2Cl)CC1` (stereo not drawn), the “hERG current change (%, negative = inhibition) at 10uM” value was 1.7%.
For `O=S1(=O)CCOC[C@H](c2ccccc2)N1Cc1ccccc1` the value was 11.4%; for `Cn1c(-c2ccc3nc(N)sc3c2)nc2cc(N)ccc21`, -1.01%; for `CCOC(=O)Cc1ccc(NS(=O)(=O)c2ccc(SC)cc2)cc1`, -10.5%.
For `CCOC(=O)c1ccc2nc(Nc3nc4ccc(F)cc4s3)sc2c1` the value was -8.68%; for `CC(C)(C)NC(=O)c1ccccc1-c1nc2ccccc2s1`, -1.65%; for `C=CCSC1=C(C#N)C(c2ccccc2C)CC(=O)N1` (stereo not drawn), 3.73%.
For `Cc1c(N=C2N=C(NC(=O)c3ccc(F)cc3)c3ccccc32)c(=O)n(-c2ccccc2)n1C` the value was 4.56%.
`Cc1sc2nc(SCC(=O)N(CCO)CCO)nc(N)c2c1C`: the “hERG current change (%, negative = inhibition) at 10uM” value is reported as 11.6%.
For `CCOC(=O)COc1ccccc1C1Nc2ccccc2C(=O)N1c1cccc(Cl)c1` (stereo not drawn) the value was -21%; for `Nc1n[nH]c2c1C1(CCCCC1)Cc1ccccc1-2`, 11.9%; for `O=C(Cn1cnc2cc([N+](=O)[O-])ccc2c1=O)NC(=O)NCc1ccccc1`, 2.25%.
For `C=CCN(CC=C)S(=O)(=O)c1ccc2nsnc2c1` the value was -1.88%; for `Cc1cc(OCCN2CC(C)OC(C)C2)ccc1[N+](=O)[O-].O=C(O)C(=O)O` (stereo not drawn), -13.8%.
Consider `CCCN(CCC)S(=O)(=O)c1ccc(C(=O)NCc2n[nH]c(=S)n2-c2ccc(Cl)c(Cl)c2)cc1`, for which the “hERG current change (%, negative = inhibition) at 10uM” value is 8.32%.
As for `O=C(COc1ccccc1)Nc1nc(-c2cccnc2)cs1`, the “hERG current change (%, negative = inhibition) at 10uM” value came to 0.9%.
For `COc1cc2c(cc1NC(=O)CSc1nccn1C)oc1ccccc12` the value was 0.938%.
For `Cc1ccc(S(=O)(=O)N(C)C)cc1NC(=O)COC(=O)CNC(=O)C12CC3CC(CC(C3)C1)C2` the value was 3.39%.
For `Cc1cc(=O)n(C(NC(=O)c2ccccc2)C(=O)c2ccccc2)cn1` (stereo not drawn) the value was 3.71%; for `COc1ccc2c(CC(=O)N3CCc4cc(OC)c(OC)cc4C3)coc2c1`, 9.06%; for `CCN(CC)C(=O)C1CCN(Cc2cccc(OCc3ccccc3)c2)CC1.O=C(O)C(=O)O`, -39.6%.
Regarding `COc1ccc(S(=O)(=O)N(C)c2ccc(C(=O)N3CCN(C)CC3)cc2)cc1`, the “hERG current change (%, negative = inhibition) at 10uM” value was determined as 3.25%.
For `CC1CCN(C(=O)CN2C(=O)NC(c3ccccc3)(c3ccccc3)C2=O)CC1` the value was -12.7%; for `O=C(C(c1ccccc1)c1ccccc1)N1CCC(c2nc(-c3ccccc3Cl)no2)CC1`, 11.2%; for `CCCCCCc1ccc(O)cc1O`, 20.7%.
On to `CCN(CC(O)CON=C1c2ccccc2-c2ccccc21)S(=O)(=O)c1ccc(C)cc1` (stereo not drawn), for which the “hERG current change (%, negative = inhibition) at 10uM” value is recorded as -2.86%.
Take `Brc1ccc(C2C3=C(Nc4ncnn42)c2ccccc2OC3c2ccncc2)cc1` (stereo not drawn): the “hERG current change (%, negative = inhibition) at 10uM” value is -32%.
For `O=C(/C=C/Nc1ccccc1Oc1ccccc1)c1ccco1` the value was 21.9%; for `CCCCCC1CC1C(=O)N/N=C/c1ccc(N(C)C)cc1` (stereo not drawn), -3.17%.
For `NC(=O)COC(=O)c1ccc(Cl)c(S(=O)(=O)N2CCCCCC2)c1` the value was -4.36%; for `C=CCNC(=O)C1CC2c3ccccc3C1c1ccccc12` (stereo not drawn), 10.6%.
